Values joined by “and” are separate entries in the source; they are usually repeats but may differ in a detail not shown here. Equal entries are not always repeated. Hit rate of the full screen: of about 340,000 compounds, about 12,000 (3.5%) were called active. The shares of active, inactive and inconclusive entries below differ from those in the screen. Calls follow the shape of the dose curve; as a rule, active = well fitted inhibition curve with a large enough effect; inconclusive = small, poorly fitted or top-dose-only effect, or another doubt; inactive = no such curve, though single readings can be large or run the other way. A potency beside an inconclusive call is a rough fit, not a confirmed value.
test: qHTS Assay for Inhibitors of Hepatitis C Virus (HCV); details: Huh7.5.1 HCVcc-Cre (HCVcc is cell-culture hepatitis C virus) infection, luciferase reporter, 44 h; activity change, negative = inhibition: at 41.8 µM (top of the series) unless noted
Summary of the method: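 Infectious HCV cell culture screen: compound-treated cells (1,000/well, pre-plated 4 h) are infected with HCVcc-Cre at roughly 0.5 moi and grown 44 h. Infection is quantified by luciferase signal after 15 min substrate incubation at room temperature.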
% is scaled to controls: 0 for no effect and ±100 for the full control effect; potency is read from the fitted curve at half-maximal effect; tags tell the direction and shape of the fitted curve.

Compound	Potency	activity change, negative = inhibition
COC(=O)c1ccc(C(=O)OC)c(NC(=O)CSCc2ccc(Br)cc2)c1	inconclusive: 31.6 µM [inhibitor, single point]	–
COc1ccc(/C=c2\s/c(=C\C(=O)C(C)(C)C)[nH]c2=O)cc1O	inconclusive: 14.1 µM [inhibitor, single point]	–
Cc1cc(C)n(CCCNC(=O)c2cc(COc3ccc(C)c(C)c3)on2)n1	–	inactive: -14.3%
COc1ccc(C)cc1S(=O)(=O)N1CCCC(C(=O)N2CCN(c3ccccc3)CC2)C1 (stereo unspecified)	inconclusive: 31.6 µM [inhibitor, single point]	–
CCOC(=O)C1=C(C)NC2=C(C(=O)C(C(=O)OCC)C(c3cccc(OC)c3)C2)C1c1ccccn1 (stereo unspecified)	–	inactive: 21.4%
CCOc1cc(C(=O)OCc2ccc(C(=O)OC)o2)cc(Br)c1OC	inconclusive: 6.31 µM [inhibitor, partial curve]	–
Cc1ccc(-c2nc(SCC(N)=O)c(C#N)c3c2CCCC3)cc1	inconclusive: 12.6 µM [inhibitor, single point]	–
O=C1N[C@@H](Cc2c[nH]c3ccccc23)COC(=O)[C@H](Cc2ccc(F)cc2)C/C=C\C[C@H]1CC(=O)N(CCO)Cc1ccccc1	inconclusive: 20 µM [inhibitor, single point]	–
O=C(/C=C/c1cc2ccccc2o1)c1ccccc1O	inconclusive: 11.2 µM [inhibitor, partial curve, poor fit]	–
COc1ccc(C2CC(C(F)(F)F)n3ncc(C(=O)Nc4cccc(O)c4)c3N2)cc1OC (stereo unspecified)	inconclusive: 22.4 µM [inhibitor, single point]	–
Cc1ccc(NC(=O)CSc2nc3ccccc3c(=O)n2CCCC(=O)NCCCN2CCOCC2)cc1	inconclusive: 12.6 µM [inhibitor, single point]	–
O=C(CNCCc1ccc(F)cc1)Nc1cc(F)ccc1F	–	inactive: 8.43%
CCOC(=O)c1cnc(-n2nc(C)cc2C)nc1Nc1ccc(OC)cc1	active: 11.2 µM	–
O=S(=O)(c1cccc(-c2nc3n(n2)Cc2ccccc2-3)c1)N1CCCCC1	inconclusive: 15.8 µM [inhibitor, single point]	–
OCC[C@H]1C[C@@H](O)[C@H](O)[C@@]2(CCCc3ccccc3O2)O1	inconclusive: 31.6 µM [inhibitor, single point]	–
Cc1nc2nc(SCC(=O)NCCCN3CCCCC3)nn2c(C)c1Cc1ccccc1	inconclusive: 12.6 µM [inhibitor, single point]	–
COc1ccccc1C1CCN(C(=O)C2CCCCC2)CC1	–	inactive: -5.65%
Cc1cc(OCc2cc(C(=O)NC3CCC3)no2)cc(C)c1Cl	inconclusive: 2.82 µM [inhibitor, single point]	–
S=C(NCc1cccs1)Nc1ccc(Br)cc1Cl	inconclusive: 22.4 µM [inhibitor, single point]	–
Clc1ccc(-c2nnc(SCc3ccon3)o2)c(Cl)c1	inconclusive: 0.501 µM [inhibitor, full curve]	–
c1ccc(COCC2CCNCC2)cc1	–	inactive: 4.24%
CCn1c(SCC(=O)Nc2ccccc2N2CCCCC2)nc2c1c(=O)n(C)c(=O)n2C	inactive and inconclusive: 28.2 µM [inhibitor, single point]	–
O=[N+]([O-])c1ccc(/C=N/Nc2nc(N3CCCCC3)nc(N3CCCCC3)n2)o1	active: 14.1 µM	–

Compound	Potency	activity change, negative = inhibition
CC1(C)CC(=O)c2c(nc(SCC(=O)Nc3nsc(-c4ccccc4)n3)c(C#N)c2-c2ccccc2)C1	inconclusive: 11.2 µM [inhibitor, partial curve]	–
CCc1cccc(CC)c1NC(=O)CSc1nnc(C2CC2)n1N	inconclusive: 31.6 µM [inhibitor, single point]	–
O=C(Nc1ccccn1)NC1CCS(=O)(=O)C1 (stereo unspecified)	–	inactive: -1.13%
CNCCc1c[nH]c2ccc(O)cc12	active: 3.16 µM	–
CN(Cc1c(F)cccc1Cl)C(=O)CNC(=O)c1sc2ccccc2c1Cl	inconclusive: 22.4 µM [inhibitor, single point]	–
CC1(c2ccccc2)NC(=O)N(NC(=O)CSc2n[nH]c(N)n2)C1=O (stereo unspecified)	–	inactive: 5.77%
Cc1cccc(-c2nc(Nc3ccc(O)cc3)c3ccccc3n2)c1	active: 12.6 µM	–
CCOC(=O)C1CCN(C(=O)C2CCC(=O)N(Cc3cccc(C(F)(F)F)c3)C2)CC1 (stereo unspecified)	inconclusive: 7.08 µM [inhibitor, partial curve]	–
O=C(NCc1cccc(F)c1)c1cccc2c1C(=O)c1ccc(N3CCC(Cc4ccccc4)CC3)cc1S2(=O)=O	inconclusive: 2.82 µM [inhibitor, single point]	–
Cc1cc(NNC(=O)c2cccc(C(F)(F)F)c2)nc2c1c(C)nn2C	active: 4.47 µM	–
CCCn1c(-c2cccnc2Cl)nc2cc(Cl)c(Cl)cc21	inconclusive: 10 µM [inhibitor, partial curve]	–
N#Cc1c2n(c3c(=S)nc[nH]c13)CCCCC2	–	inactive: 11.8%
FC(F)(F)c1ccccc1-n1c(-c2ccco2)n[nH]c1=S	–	inactive: 17.9%
COc1ccc(S(=O)(=O)N2CCCCCC2)cc1NS(=O)(=O)c1cc(C(=O)O)cc(C)c1C	–	inactive: 18.1%
Cc1onc(-c2c(F)cccc2Cl)c1C(O)c1ccc(F)cc1 (stereo unspecified)	–	inactive: 4.05%
CCc1c(C(=O)Nc2ccc(S(=O)(=O)N3CCOCC3)cc2)csc1C	active: 10 µM	–
COc1ccc(N2C(=O)CC(N3CCCCC3)C2=O)cc1 (stereo unspecified)	–	inactive: 26.8%
COC(=O)c1c(N)n(-c2ccc(NC(C)=O)cc2)c2nc3ccccc3nc12	inconclusive: 22.4 µM [inhibitor, single point]	–
CC1(c2ccc(OCC#N)cc2)C=C(c2ccc(OCC#N)cc2)n2nc(C(F)(F)F)nc2N1 (stereo unspecified)	active: 8.91 µM	–
COc1ccccc1/C=C/c1ccc2cccc(O)c2n1	inconclusive: 3.16 µM [inhibitor, single point]	–
CCOc1ccc(C(=O)NN2C(=O)C3C4C=CC(O4)C3C2=O)cc1 (stereo unspecified)	–	inactive: 10.1%
O=C(O)COCC(=O)Nc1ccc2c(c1)ncn2CCc1ccccc1	inconclusive: 5.62 µM [inhibitor, single point]	–
Cc1ccc(O)c(-c2cc(C(=O)Nc3cccnc3)[nH]n2)c1	–	inactive: -25.8%

Source: PubChem BioAssay AID651820 (National Center for Advancing Translational Sciences (NCATS), 2012)
